± gives the standard deviation of the averaged measurements. The list shows a part of the results.

These results are taken from the supplement of paper PMC11417369.

This assay has as its system PfAP2-I AP2 domain 3 (GST-tagged). In words: gcPBM binding intensity (ln(normalized median fluorescence intensity)); higher = stronger DNA binding. The procedure, abridged:
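Alexa488 anti-GST antibody, scanned at 488 nm, detected GST-tagged P. falciparum DNA-binding domains that had been expressed in E. coli and incubated for 1 h on an Agilent 4 × 180k array. The array carried primer-extended double-stranded 36-bp intergenic genomic probes and negative controls. Binding intensity is the highest Masliner-normalised natural-log median intensity across replicate spots of either orientation of each probe.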
Turning to “TTTTTTTTTTTTTTTTTTTTTTTATCTATTATTTAT [XGTACX_negctrl_site496]”, the “gcPBM binding intensity (ln)” value came to 8.05 ± 0.79.

In the case of “AATACTATTATTATTGCACACTTATTATCCCTCGGA [CACACA_site4262]”, the “gcPBM binding intensity (ln)” value came out at 10.6 ± 0.38.

On to TATCCATTTCTTTATGTGCACATTAAATATATTTGT, for which the “gcPBM binding intensity (ln)” value is 10.2 ± 0.4.

Turning to “TATAAAAATATTTCTACACACATTAATATATATATA [CACACA_site1150]”, the “gcPBM binding intensity (ln)” value was found to be 8.97 ± 0.042.

On to “AATATATAGAGAGATATGCACACTGTATGAATGCAC [CACACA_site2677]”, for which the “gcPBM binding intensity (ln)” value came out at 10.7 ± 0.54.

“TATATTAATAATAAGTGTACATATATATATATTTTT [XGTACX_site288]”: the “gcPBM binding intensity (ln)” value is 7.84 ± 0.47.

As to “AATGAGAAATATAATTGTACATATATTTATTTTCAT [XGTACX_site3669]”, the “gcPBM binding intensity (ln)” value came out at 7.63 ± 0.35.

“ATTTGTAAAAAATTCATACACACGTCTTATTTTTAA [CACACA_site1390]”: the “gcPBM binding intensity (ln)” value came out at 7.59 ± 0.66.

With “TATTTTTTCTTTCATTGTACTTTTTTTTTGTTTTGT [XGTACX_site4081]”, the “gcPBM binding intensity (ln)” value was 7.75 ± 0.68.

For “ACCCAGTGTATTCATAGTACACGCTCATATATTATC [XGTACX_site423]”, the “gcPBM binding intensity (ln)” value turned out to be 8.11 ± 0.54.

For “AGGTTTATAAAAAAAAAAAAAAAAAAAAAAAAAAAA [GTGCAC_negctrl_site113]”, the “gcPBM binding intensity (ln)” value amounted to 8.21 ± 0.79.

As for “AATATTTAAAACATATGTACTGAAAAACAATTGGAC [XGTACX_site6360]”, the “gcPBM binding intensity (ln)” value stood at 8.12 ± 0.57.

With “CACAAAGGTCTGAAATTTTAGGGGTGCCTGGGACTA [CACACA_negctrl_site681]”, the “gcPBM binding intensity (ln)” value came out at 7.88 ± 0.36.

Turning to “AACAAGTTGCATGGTGCACACATGTATATATATCTA [CACACA_site2548]”, the “gcPBM binding intensity (ln)” value is 10.6 ± 0.21.

Take “TACAATTTTACTCATAAACACACATATATATGTTAT [CACACA_site9031]”: the “gcPBM binding intensity (ln)” value came to 7.82 ± 0.46.

Turning to “AAAATGTATGTAGTCTGTACAAATACTCTATAAATA [XGTACX_site6475]”, the “gcPBM binding intensity (ln)” value is 7.67 ± 0.47.

With “TATTTTTTATGATTAACACACACACTAATAAAAAAA [CACACA_site9370]”, the “gcPBM binding intensity (ln)” value came out at 8.21 ± 0.42.

On to “TATATATATATATATAGTACGCACACATAGTTGCAA [XGTACX_site5875]”, for which the “gcPBM binding intensity (ln)” value is 9.27 ± 0.52.

With “ATTCTTACTAATATCGCACACACATATGTAGACGGG [CACACA_site88]”, the “gcPBM binding intensity (ln)” value turned out to be 8.98 ± 0.39.

For the sequence “ATTTTTTTATTTTTGTGTACTTATAAGAATATTAAT [XGTACX_site4850]”, the “gcPBM binding intensity (ln)” value is 8.15 ± 0.38.

Take “AATGAATATATTTATTGTACATATATGAATATTGCA [XGTACX_site8689]”: the “gcPBM binding intensity (ln)” value is 7.89 ± 0.15.

For “AAAAAAAAAAAAAAAAGTACAAAAAGGAGAAAGATA [XGTACX_site7862]”, the “gcPBM binding intensity (ln)” value came to 8.56 ± 0.38.

For “TATGTTCCTTTTTGTTGTACTGAAAAATTATGTTCA [XGTACX_site3981]”, the “gcPBM binding intensity (ln)” value was 8.03 ± 0.23.

Turning to “ATAATATAAATTAATTTACACACTAATAAATATATA [CACACA_site9259]”, the “gcPBM binding intensity (ln)” value is 7.8 ± 0.45.

Turning to “ATTTTAAATTTATCTGTGCACAGTATTATATAAGCA [GTGCAC_site9806]”, the “gcPBM binding intensity (ln)” value is 9.95 ± 0.2.

Take “TATATATATATATGTGCACACCAATTGTATGTAATA [CACACA_site3888]”: the “gcPBM binding intensity (ln)” value was found to be 10.

For “TCATAAAAGATTAAGTGTACATGTGCTACTCTTATA [XGTACX_site6255]”, the “gcPBM binding intensity (ln)” value was found to be 7.54 ± 0.47.

For the sequence “AATATAAAATCAAGAAATTAAAAAAAAACAGAAAAC [CACACA_negctrl_site1004]”, the “gcPBM binding intensity (ln)” value worked out at 8.07 ± 0.69.

In the case of “ACAAGATAATAGAGAAGTACTAATAAACATACACAA [XGTACX_site6617]”, the “gcPBM binding intensity (ln)” value amounted to 7.88 ± 0.64.

As to “AAACCAAAAATAACACGTACAAAAATAAAAAGTATA [XGTACX_site4261]”, the “gcPBM binding intensity (ln)” value was 7.97 ± 0.34.

In the case of “AAAACATATTTTAAAAGTACTTGAAAAAAAATTTTC [XGTACX_site3940]”, the “gcPBM binding intensity (ln)” value came to 7.57 ± 0.3.

On to “ATTATGCACGGACACACACACACACCCCTAAAAAAT [CACACA_site5426]”, for which the “gcPBM binding intensity (ln)” value stood at 10.4 ± 0.49.

Turning to “TGTTAACCACAAAAATAAAATAAAATAAAAATAATA [XGTACX_negctrl_site535]”, the “gcPBM binding intensity (ln)” value came out at 7.38 ± 0.8.

For “TTTCCCATAGGAAAAACACACATATATTATAGATAA [CACACA_site7019]”, the “gcPBM binding intensity (ln)” value came to 7.41 ± 0.74.

In the case of “TATGCTATTATATATGTACACACCAATTTATTTATA [CACACA_site3918]”, the “gcPBM binding intensity (ln)” value worked out at 8.12 ± 0.42.

For “TGATAAATATTATGTTGTACTTTCTGCCCTTCACAT [XGTACX_site5168]”, the “gcPBM binding intensity (ln)” value is 8.16 ± 0.5.

With “GAAAAAAAAAGTTAAGCACACACATGAATAAATAAT [CACACA_site8179]”, the “gcPBM binding intensity (ln)” value was 8.43 ± 0.29.

For “TTTTGATGCTTTAAATGTACAAGGGTTCTTATGAAA [XGTACX_site831]”, the “gcPBM binding intensity (ln)” value turned out to be 7.88 ± 0.38.

For the sequence “GAGAGAGAAATATGCACACATAAGGGAAATAAATAA [CACACA_site1153]”, the “gcPBM binding intensity (ln)” value came out at 8.94 ± 0.071.

For “AAAAAAAAAAAATAGAAAAAAAAATAAAATAAAAAA [CACACA_negctrl_site562]”, the “gcPBM binding intensity (ln)” value was determined as 7.5 ± 0.38.

Consider “TGTATATAATTTATATGTACATATATTTTATTTTGT [XGTACX_site1905]”, for which the “gcPBM binding intensity (ln)” value came to 7.71 ± 0.37.

Turning to “AATATATAAATTGACACACACATATATACCTATATA [CACACA_site4803]”, the “gcPBM binding intensity (ln)” value worked out at 7.88 ± 0.54.

As to “CACAATGGTTTATATACACACTGTTGCAAATTCTTC [CACACA_site5659]”, the “gcPBM binding intensity (ln)” value came out at 7.76 ± 0.71.

As to “AATATAAACACAAACACACACATATAGATTTATATA [CACACA_site6263]”, the “gcPBM binding intensity (ln)” value was 7.78 ± 0.35.
